Residue numbers refer to the chain shown, from its start. Names and notes keep the numbering of the source. Results are given in words; binding and its absence hold for the method and conditions named. Some entries that bind do so weakly or less than the wild type. Blank lines part the entries; values can stand above or below the binder they belong to.
What was measured:
Experiment in all cases: two-hybrid; matrix-based yeast two-hybrid, GAL4-AD and GAL4-BD fusions (pDEST22, pDEST32), in duplicate, at least two reporter genes; medium lacking Leu, Trp and His with 1 mM 3-amino-1,2,4-triazole, growth scored after 4 days at 20°C
[1] = biological target: AGAMOUS (Arabidopsis thaliana) (UniProt P17839)
[2] = biological target: FLOWERING LOCUS C (Arabidopsis thaliana) (UniProt Q9S7Q7)
[3] = biological target: AGAMOUS-LIKE24 (Arabidopsis thaliana) (UniProt O82794)
[4] = biological target: T1, AGL15 (Arabidopsis thaliana) (UniProt Q38847)
T1 sequence: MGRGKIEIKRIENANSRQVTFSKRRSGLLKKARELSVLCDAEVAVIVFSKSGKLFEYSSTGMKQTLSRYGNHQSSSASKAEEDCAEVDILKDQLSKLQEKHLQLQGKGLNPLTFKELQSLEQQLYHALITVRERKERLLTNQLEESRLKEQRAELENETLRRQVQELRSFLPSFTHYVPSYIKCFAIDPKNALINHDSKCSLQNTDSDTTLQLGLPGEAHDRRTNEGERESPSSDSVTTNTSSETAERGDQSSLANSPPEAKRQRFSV

Sequences of proteins named here, by UniProt entry; tags and fusion partners are left off.
UniProt P17839: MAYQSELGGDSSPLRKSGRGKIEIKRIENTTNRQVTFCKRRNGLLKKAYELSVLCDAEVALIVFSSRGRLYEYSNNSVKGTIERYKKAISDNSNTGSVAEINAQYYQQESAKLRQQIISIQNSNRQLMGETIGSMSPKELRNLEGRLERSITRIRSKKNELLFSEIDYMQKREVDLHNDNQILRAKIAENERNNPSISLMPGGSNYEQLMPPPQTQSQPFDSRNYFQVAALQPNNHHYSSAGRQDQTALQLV
UniProt Q9S7Q7: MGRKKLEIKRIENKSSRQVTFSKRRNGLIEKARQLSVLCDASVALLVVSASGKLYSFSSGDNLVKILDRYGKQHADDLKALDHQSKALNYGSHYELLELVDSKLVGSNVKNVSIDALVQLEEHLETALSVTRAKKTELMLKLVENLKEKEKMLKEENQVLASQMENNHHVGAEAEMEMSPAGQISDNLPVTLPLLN
UniProt O64645: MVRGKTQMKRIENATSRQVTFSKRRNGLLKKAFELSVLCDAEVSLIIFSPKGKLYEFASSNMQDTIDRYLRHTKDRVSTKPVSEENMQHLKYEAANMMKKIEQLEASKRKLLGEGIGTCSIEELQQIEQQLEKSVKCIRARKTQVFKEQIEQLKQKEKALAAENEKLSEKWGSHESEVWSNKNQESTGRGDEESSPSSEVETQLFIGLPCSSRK
UniProt Q9FPN7: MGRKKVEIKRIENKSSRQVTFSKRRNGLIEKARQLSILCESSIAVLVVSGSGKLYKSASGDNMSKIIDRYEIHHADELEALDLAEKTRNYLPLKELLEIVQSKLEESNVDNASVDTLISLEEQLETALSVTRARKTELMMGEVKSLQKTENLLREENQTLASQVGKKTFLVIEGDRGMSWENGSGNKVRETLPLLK
UniProt Q9FIS1: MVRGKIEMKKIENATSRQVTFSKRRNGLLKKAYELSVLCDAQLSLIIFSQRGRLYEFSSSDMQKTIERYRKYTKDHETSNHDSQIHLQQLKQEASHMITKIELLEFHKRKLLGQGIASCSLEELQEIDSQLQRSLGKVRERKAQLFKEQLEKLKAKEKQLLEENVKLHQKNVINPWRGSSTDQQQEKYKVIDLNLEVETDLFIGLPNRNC
UniProt Q9SZJ6: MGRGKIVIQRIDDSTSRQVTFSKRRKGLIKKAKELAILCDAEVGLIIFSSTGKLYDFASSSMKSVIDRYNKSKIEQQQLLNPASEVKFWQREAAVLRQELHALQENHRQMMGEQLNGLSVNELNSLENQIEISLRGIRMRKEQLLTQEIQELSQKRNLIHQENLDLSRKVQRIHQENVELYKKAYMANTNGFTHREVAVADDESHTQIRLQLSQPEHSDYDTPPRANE
UniProt Q38838: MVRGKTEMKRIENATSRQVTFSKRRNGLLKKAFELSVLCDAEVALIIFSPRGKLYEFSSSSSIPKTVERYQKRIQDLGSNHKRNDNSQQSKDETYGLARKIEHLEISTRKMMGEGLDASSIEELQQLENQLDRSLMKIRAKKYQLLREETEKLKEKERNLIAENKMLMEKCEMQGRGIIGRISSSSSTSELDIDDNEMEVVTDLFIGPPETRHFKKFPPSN

[5] = biological target: SUPPRESSOR OF OVEREXPRESSION OF CO 1 (Arabidopsis thaliana) (UniProt O64645)
[6] = biological target: T2, XAL1 (Arabidopsis thaliana) (UniProt Q38841)
T2 sequence: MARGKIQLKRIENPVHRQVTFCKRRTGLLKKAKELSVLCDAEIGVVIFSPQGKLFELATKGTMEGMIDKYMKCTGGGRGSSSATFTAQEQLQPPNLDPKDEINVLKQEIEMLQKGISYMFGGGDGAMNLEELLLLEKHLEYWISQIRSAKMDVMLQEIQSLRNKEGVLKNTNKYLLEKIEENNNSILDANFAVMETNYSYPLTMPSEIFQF

[7] = biological target: MADS … FLOWERING 2 (Arabidopsis thaliana) (UniProt Q9FPN7)
[8] = biological target: SHORT … PHASE (SVP1) (Arabidopsis thaliana) (UniProt Q9FVC1)
[9] = biological target: AGL42 (Arabidopsis thaliana) (UniProt Q9FIS1)
[10] = biological target: AGL21 (Arabidopsis thaliana) (UniProt Q9SZJ6)
[11] = biological target: AGAMOUS LIKE14 (Arabidopsis thaliana) (UniProt Q38838)

binding [1]: binds
binding [2]: no binding
binding [3]: binds
binding [4]: no binding
binding [5]: binds
binding [6]: no binding
binding [7]: binds
binding [8]: no binding
binding [9]: binds
binding [10]: binds
binding [11]: binds
B1: AGL24 R61S (protein, UniProt O82794 1-220)
chain: MAREKIRIKKIDNITARQVTFSKRRRGIFKKADELSVLCDADVALIIFSATGKLFEFSSSSMRDILGRYSLHASNINKLMDPPSTHLRLENCNLSRLSKEVEDKTKQLRKLRGEDLDGLNLEELQRLEKLLESGLSRVSEKKGECVMSQIFSLEKRGSELVDENKRLRDKLETLERAKLTTLKEALETESVTTNVSSYDSGTPLEDDSDTSLKLGLPSWE

binding [2]: no binding
binding [5]: binds
binding [6]: no binding
binding [7]: no binding
binding [8]: no binding
binding [9]: no binding
binding [10]: binds
binding [11]: binds
B2: AGAMOUS-LIKE24 (protein, UniProt O82794 1-220)
chain: B1 chain with S61R
